# Data: paper PMC4336329 (PLoS ONE, 2015)
# In all, about 310,000 compounds went through this assay and about 14,000 (4.5%) showed an effect of 50% or more. Effects have a minus sign here. The list shows a part of the results.
# Molecular target: human ether-à-go-go-related gene (hERG) potassium channel (human, UniProt Q12809)
# Experiment: primary screen, population patch clamp on CHO cells stably expressing hERG
# 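Further: peak tail current of the secondary pulse compared with the same well before compound.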
# Sequence of human ether-à-go-go-related gene (hERG) potassium channel (Q12809 whole entry, looked up): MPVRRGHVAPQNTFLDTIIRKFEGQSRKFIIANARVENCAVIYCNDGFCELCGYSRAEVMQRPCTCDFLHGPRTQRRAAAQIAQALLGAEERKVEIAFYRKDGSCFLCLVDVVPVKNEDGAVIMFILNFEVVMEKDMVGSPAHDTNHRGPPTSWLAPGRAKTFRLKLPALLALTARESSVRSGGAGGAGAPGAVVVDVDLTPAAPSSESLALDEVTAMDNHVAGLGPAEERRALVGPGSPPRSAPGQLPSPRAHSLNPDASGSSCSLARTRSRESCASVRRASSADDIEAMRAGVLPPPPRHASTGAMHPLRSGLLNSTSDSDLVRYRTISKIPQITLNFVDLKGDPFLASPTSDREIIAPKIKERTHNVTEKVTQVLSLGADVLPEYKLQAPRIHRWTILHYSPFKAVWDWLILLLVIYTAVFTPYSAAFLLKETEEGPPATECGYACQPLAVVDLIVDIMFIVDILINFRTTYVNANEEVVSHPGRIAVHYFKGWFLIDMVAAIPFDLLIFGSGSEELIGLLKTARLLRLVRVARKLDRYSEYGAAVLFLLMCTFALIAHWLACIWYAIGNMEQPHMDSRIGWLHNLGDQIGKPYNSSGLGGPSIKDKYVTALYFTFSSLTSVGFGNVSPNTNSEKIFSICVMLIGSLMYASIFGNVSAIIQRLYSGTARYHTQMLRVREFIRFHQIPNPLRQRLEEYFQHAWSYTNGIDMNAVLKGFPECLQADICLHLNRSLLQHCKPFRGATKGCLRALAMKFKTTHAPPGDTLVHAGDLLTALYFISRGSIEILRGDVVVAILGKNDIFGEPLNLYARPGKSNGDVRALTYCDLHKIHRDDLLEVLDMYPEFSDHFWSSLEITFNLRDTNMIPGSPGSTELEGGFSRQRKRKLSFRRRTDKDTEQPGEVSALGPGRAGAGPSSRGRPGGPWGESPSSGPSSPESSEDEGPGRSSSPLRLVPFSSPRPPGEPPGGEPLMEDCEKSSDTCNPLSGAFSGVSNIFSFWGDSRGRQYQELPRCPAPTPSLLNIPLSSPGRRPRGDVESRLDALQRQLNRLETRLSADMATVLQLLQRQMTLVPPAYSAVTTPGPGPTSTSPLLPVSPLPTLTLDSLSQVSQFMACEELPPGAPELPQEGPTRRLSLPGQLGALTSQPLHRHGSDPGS
row,Compound,"hERG current change (%, negative = inhibition) at 10uM [%]"
1,Cc1ccc(N2C(=O)C3C4C=CC(CC4)C3C2=O)cc1Cl (stereo not drawn),17.4
2,COc1ccc([C@H]2CC(=O)C=C(c3cccc(Cl)c3O)C2)cc1OC,-26.7
3,Cc1cccc(NS(=O)(=O)c2cc(C(=O)NCCC3=CCCCC3)ccc2Cl)c1,-0.512
4,NS(=O)(=O)c1ccc(CCNC(=O)CSc2ccc3ccccc3c2)cc1,-8.58
5,Clc1ccc(Oc2nnnn2-c2ccccc2)cc1,-21
6,Cc1cc(SCC(N)=O)nc(SCC(=O)c2ccccc2)n1,-8.23
7,Cc1cc(CNC(=O)c2ccc3nc(Cc4ccccc4F)oc3c2)nn1C,5.16
8,COc1ccc(C(=O)NCCC(C)C)cc1S(=O)(=O)N1CCOCC1,-8.41
9,COc1ccc(S(=O)(=O)N2CCC(NC(=O)C3CCCCC3)CC2)cc1,8.75
10,CC(C)CC(=O)Nc1ccccc1N1CCOCC1,6.04
11,c1cnc(NC2C3CC4CC(C3)CC2C4)nc1 (stereo not drawn),-9.58
12,CCCN(CCC)CCCNC(=O)c1cc2c(=O)[nH]c3ccccc3c2n1C,7.94
13,N=C1C(c2nc3ccccc3s2)=C(O)CN1NC(=O)c1ccco1,-1.52
14,COc1ccc(NC(=O)CSc2nnc(NC(=O)c3ccccc3C(=O)O)s2)cc1,13.6
15,COc1ccc(-n2nc(C(=O)NCC(=O)N3CCCCC3)c3ccccc3c2=O)cc1,3.14
16,COc1ccc(C(=O)CSc2nnc(CNC(=O)c3ccc(OC)cc3)n2C)cc1,6.86
17,CNC(=O)c1csc(-c2ccc(C)cc2)n1,26.7
18,O=S(=O)(Nc1ncccn1)c1ccccc1,3.63
19,CCOC(=O)c1c(NC(=O)CSc2nnc(-c3ccccc3)o2)sc(C(C)=O)c1C,5.01
20,CCOc1ccccc1NC(=O)NC(=O)N(C)S(C)(=O)=O,7.23
21,COc1ccc(CNC(=O)c2ccc(Cn3cc(Br)cn3)o2)cc1,-22.3
22,O=C(O)CCc1nc(-c2cccs2)no1,-0.164
23,O=C(Nc1c2c(nn1-c1ccccc1)CS(=O)(=O)C2)c1ccccc1C(F)(F)F,14.3

row,Compound,"hERG current change (%, negative = inhibition) at 10uM [%]"
1,C/C(=N\Nc1ccc(F)cc1)c1ccncc1,-42.3
2,CCN=C1SC(C(=O)Nc2cccc(Cl)c2)CC(=O)N1CC (stereo not drawn),-10.7
3,CCN1C(=O)C2(C(C(=O)c3ccc(C)o3)=C(O)C(=O)N2CCCN(C)C)c2ccccc21 (stereo not drawn),19.8
4,CC(=O)O.NC1=NC(c2ccc(Br)cc2)n2c(nc3ccccc32)N1 (stereo not drawn),-8.18
5,Cc1cc(C)c(S(=O)(=O)n2ccc3ccccc32)c(C)c1,6.67
6,CN(C)S(=O)(=O)c1ccc(NC(=S)NC(=O)Cc2ccccc2)cc1,4.34
7,CC(C)OC(=O)CCc1nc2ccccc2[nH]c1=O,10.1
8,Cn1nnnc1Sc1ccc(C(=O)O)cc1[N+](=O)[O-],-1.08
9,O=C(O)c1cc(-c2ccccc2Cl)n(-c2ccc(F)cc2)n1,11.3
10,Cc1ccccc1C(=O)NCCCNC(=O)c1ccccn1,6.77
11,CCOc1ccc(S(=O)(=O)N(C)c2ccc(OCC(=O)NCCc3ccc(OC)cc3)cc2)cc1,-2.8
12,CCc1cccc(NC(=O)Cc2cn(C)c3ccccc23)c1,-7.6
13,CCOC(=O)Nc1ccc2nc(N3CCCCCC3)sc2c1,-50.6
14,Nn1c(SCC(=O)Nc2ccc(F)cc2)nnc1-c1cccnc1,12
15,COc1ccc(-c2cc3c(=O)n(CC(=O)NCCCN4CCC(N5CCCCC5)CC4)nc(C)n3n2)cc1,-2.97
16,Nc1ccc(CN2CCCCCC2)cc1,16.6
17,O=C1CC(c2ccccc2)CC(O)=C1C=NCCN1CCNCC1 (stereo not drawn),9.28
18,C/C(=N\NC(=O)c1cccc(C)c1O)c1ccc(NC(=O)Cc2ccccc2)cc1,-25.8
19,O=C(CNS(=O)(=O)c1ccccc1)NCc1ccccn1,-2.07
20,COc1cc(OC)cc(C(=O)NCc2cc(C)nc3ccccc23)c1,-2.16
21,O=C(CCl)Nc1cccc(CP(=O)(c2ccccc2)c2ccccc2)c1,-27.6
22,CCOC(=O)C1=C(C)OC(N)=C(C#N)C1c1ccsc1 (stereo not drawn),3.29
23,Cn1nc(C(C)(C)C)cc1NC(=O)Nc1ccc(Cl)cc1,8

row,Compound,"hERG current change (%, negative = inhibition) at 10uM [%]"
1,Cc1ccc(C=Nc2ccccc2C(N)=O)s1,11
2,CC(/C=C/c1ccc2c(c1)OCO2)=N/NC(=O)c1ccc(C)nc1,-0.311
3,O=C(C1c2ccccc2Oc2ccccc21)N1CCN(c2ccc(Cl)cc2)CC1,12.1
4,Cc1cccc(NP(=O)(Oc2ccccc2F)Oc2ccccc2F)c1,0.048
5,CN(CC1CCCN(CCc2ccc(Cl)cc2)C1)C(=O)C(=O)c1ccco1 (stereo not drawn),-74.5
6,CC(C)c1ccc(NC(=S)NN2C(C)CCCC2C)cc1 (stereo not drawn),28
7,Cc1nc(N2CCN(c3ccccn3)CC2)c2c(C)c(C(=O)N3CCN(c4ccc(F)cc4)CC3)sc2n1,6.79
8,Cc1cc(NS(=O)(=O)c2ccc(NC(=O)C(C)Oc3ccc(C(C)C)cc3)cc2)no1 (stereo not drawn),5.89
9,CCCN(CCC)CCCNC(=O)c1ccc2c(Cl)c3c(nc2c1)CCC3,-29.1
10,CC(Oc1ccc2c3c(c(=O)oc2c1)CCC3)C(=O)NCC1CCC(C(=O)O)CC1 (stereo not drawn),12.5
11,C=CCNC(=O)Nc1ccc2oc(C)nc2c1,-1.38
12,COCCN(Cc1cc2ccccc2[nH]c1=O)C(=O)c1ccccc1OC,-1.13
13,CCOc1cc(NC(=S)NCC2CCCO2)c(OCC)cc1NC(=O)c1ccccc1C (stereo not drawn),-15.4
14,CCc1c(C)nc(N2CCN(c3ccc(OC)cc3)CC2)[nH]c1=O,14.4
15,O=C(Nc1ccc(Br)cc1)C(c1ccccc1)c1ccccc1,14.5
16,CN(CC(=O)Nc1ccc(S(=O)(=O)N2CCCC2)cc1)Cc1ccc(Cl)cc1,5.6
17,CC(C)C(c1nnnn1Cc1ccccc1)N(CCCO)Cc1cc2cc3c(cc2[nH]c1=O)OCO3 (stereo not drawn),-7.12
18,COc1ccccc1N1CCN(C(=O)N2CCOCC2)CC1,22.5
19,CCCCn1c(SCC(=O)NC2CC2)nnc1-c1ccncc1,17.2
20,CCc1nc2c(c(=O)c3ccccc3n2C)c(=O)n1C1CCCCCC1,-1.73
21,Cc1ccc(CNS(=O)(=O)c2ccc3oc(C(=O)O)c(C)c3c2)cc1,-3.09
22,COc1ccc(NC(=O)CSc2c3c(nc4ccccc24)CCC3)c(OC)c1,-36.9
23,CCOC(=O)N1CCC(NC(=O)c2cc(COc3ccc(F)cc3Cl)on2)CC1,-0.672

row,Compound,"hERG current change (%, negative = inhibition) at 10uM [%]"
1,COc1ccc(C)cc1S(=O)(=O)N1CCCC(C(=O)N2CCN(c3ccccc3F)CC2)C1 (stereo not drawn),-23.4
2,O=C(NC1CCSc2ccccc21)c1ccc(F)c(S(=O)(=O)N2CCOCC2)c1 (stereo not drawn),-3.33
3,C=CCN1C(=O)[C@@H]2Cc3c([nH]c4ccccc34)C(c3ccc(O)cc3)N2C1=S (stereo partly drawn),16.6
4,CN(C)CCN1C(=O)C(=O)/C(=C(/O)c2ccc(F)cc2)C1c1ccccc1F (stereo not drawn),11.8
5,Cc1cc(C)n(-c2nc3ccccc3c(=O)n2OCC(C)C)n1,9.88
6,O=c1cc(N2CCC3(CC2)OCCO3)[nH]c(=O)n1-c1ccc(Cl)cc1,-10.1
7,COCCCN(C(=O)c1ccco1)c1nc(-c2ccc(OC)cc2)cs1,1.81
8,O=C(COC(=O)C1CC1)c1c[nH]c2ccccc12,1.48
9,CN(c1ccccc1)c1ccc(/C=C(\C#N)c2nnc3n2CCCCC3)cc1[N+](=O)[O-],-45.5
10,COc1cccc(CNC(=O)C2CCC(=O)N(CC3CCCCC3)C2)c1OC (stereo not drawn),16.7
11,Cc1ccc(-c2csc3ncn(CC#N)c(=O)c23)cc1,5.01
12,Cc1cc(NC(=O)CCCOc2ccc(Cl)cc2Cl)no1,19.7
13,O=C(CN(Cc1ccccc1C(F)(F)F)C(=O)CNC(=O)c1ccco1)NC1CCCC1,-9.63
14,Cc1cc(C)c2cc(C(O)c3nnnn3Cc3ccccc3)c(=O)[nH]c2c1 (stereo not drawn),-11.8
15,C[C@@H](O)[C@H]1O[C@]2(C)CCC[C@H]1O2,17
16,O=C(C1CCN(S(=O)(=O)c2ccccc2)CC1)N1CCc2ccccc21,28
17,CCOC(=O)c1cnc(-c2ccccc2)nc1Oc1ccc(Cl)c(Cl)c1,7.25
18,COCc1ccc(C(=O)NC2CCCN(Cc3ccccc3F)C2)o1 (stereo not drawn),11.2
19,O=C(c1ccc(S(=O)(=O)Cc2ccccc2F)c([N+](=O)[O-])c1)N1CCCCCC1,-18.6
20,CC1(C)Cc2cccc(OCC(=O)O)c2O1,17.9
21,O=C(O)c1ccc(/C=N/NC(=O)C(O)(c2ccccc2)c2ccccc2)cc1,12.4
